Structures are written as SMILES. Structures can show the parent of a compound that is named as a salt. Over roughly 2,600 compounds, “total cell number (DAPI+ nuclei) relative to DMSO vehicle control” has its median near -1.4; the lowest 2% begin near -23. The list shows a part of the results.

The test system of this experiment is jimpy (Plp1 jimpy) mouse iPSC-derived oligodendrocyte progenitor cells. The experiment can be described thus: total cell number (DAPI+ nuclei) relative to DMSO vehicle control (SDs above negative control mean); higher = more surviving cells. The settings on record: 10 µM; 3 days.
Take `NCCc1c[nH]c2ccc(O)cc12` [Serotonin HCl]: the total cell number was -1.15.
Consider `NCCc1c[nH]c2ccc(O)cc12` [Serotonin hydrochloride], for which the total cell number was -2.26.
The value for `C/C=C(\C)C(=O)N[C@@H](c1ccccc1)[C@@H](O)C(=O)O[C@H]1C[C@@]2(O)[C@@H](OC(=O)c3ccccc3)[C@@H]3[C@]4(OC(C)=O)CO[C@@H]4C[C@H](O)[C@@]3(C)C(=O)[C@H](OC(C)=O)C(=C1C)C2(C)C` [Cephalomannine] was -8.28; that for `CCC(COC(=O)c1cc(OC)c(OC)c(OC)c1)(c1ccccc1)N(C)C` (stereo not given) [Trimebutine] was 1.99.
`CC[C@H]1CN2CCc3cc(OC)c(OC)cc3[C@@H]2C[C@@H]1C[C@H]1NCCc2cc(OC)c(OC)cc21` [Emetine dihydrochloride hydrate] showed a total cell number of -10.
The value for `COc1cc([C@@H]2c3cc4c(cc3[C@H](O)[C@H]3COC(=O)[C@H]23)OCO4)cc(OC)c1OC` [Podophyllotoxin] was -3.41; that for `CCC1(c2cccc(O)c2)CCCCN(C)C1` (stereo not given) [Meptazinol HCl] was -0.338; that for `C[C@@H]1CC[C@H]2[C@@H](C)C(=O)O[C@@H]3O[C@@]4(C)CC[C@@H]1[C@]32OO4` [Artemisinin] was -5.57.
The value for `CS(=N)(=O)CC[C@H](N)C(=O)O` (stereo partly drawn) [L-Methionine sulfoximine] was -1.34; that for `C#C[C@]1(O)C=C[C@H]2[C@@H]3CCC4=CC(=O)CC[C@@H]4[C@H]3CC[C@@]21CC` [Gestodene] was -1.69; that for `CN(c1nc2ccccc2s1)C1CCN(C[C@H](O)COc2ccc(F)c(F)c2)CC1` [Lubeluzole dihydrochloride] was 1.07.
Take `CC(C)(C)NCC(O)c1ccccc1Cl` (stereo not given) [Tulobuterol hydrochloride]: the total cell number was -1.3.
The value for `CC1(C(=O)O)C2CCC(O2)C1(C)C(=O)O` (stereo not given) [Cantharidic Acid] was -11.3; that for `Cc1cccc([C@H](C)c2c[nH]cn2)c1C` [Dexmedetomidine] was 0.763; that for `CC(=O)OCC1=C(C(=O)O)N2C(=O)[C@@H](N)[C@H]2SC1` [7-Aminocephalosporanic acid] was 0.0421.
The value for `C=C(C)[C@@H]1[C@H]2OC(=O)[C@@H]1[C@]1(O)C[C@H]3OC34C(=O)O[C@H]2[C@@]41C.CC(C)(O)[C@@H]1[C@H]2OC(=O)[C@@H]1[C@]1(O)C[C@H]3OC34C(=O)O[C@H]2[C@@]41C` (stereo not given in full) [Picrotoxin] was -0.998; that for `CCCN1CCc2cc(O)cc3c2[C@H]1Cc1ccc(O)c(O)c1-3` [R(-)-2,10,11-Trihydroxy-N-propylnoraporphine hydrobromide] was -3.99; that for `CC(=O)OC12COC1CC(O)C1(C)C(=O)C(O)C3=C(C)C(O)CC(O)(C(OC(=O)c4ccccc4)C21)C3(C)C` (stereo not given) [10-Deacetylbaccatin-III] was -4.79.
Regarding `C#CCN[C@H](C)Cc1ccccc1` [R-(-)-Desmethyldeprenyl hydrochloride], the total cell number was -1.37.
For the compound `CCCN(CCC)[C@@H]1CCc2cccc(O)c2C1` [R-(+)-8-Hydroxy-DPAT hydrobromide], the total cell number was -1.25.
The value for `CN1[C@@H]2CC[C@H]1C[C@@H](OC(c1ccccc1)c1ccccc1N)C2` (stereo not given in full) [Aminobenztropine] was -2.43.
With `c1ccc(C2CC2)c(OCC2=NCCN2)c1` [Cirazoline hydrochloride], the total cell number was -1.57.
`C[C@]12CCC(=O)C(O)=C1CC[C@@H]1[C@@H]2CC[C@]2(C)C(=O)CC[C@@H]12` [Formestane] gave a total cell number of -1.25.
`NCC(CP(=O)(O)O)c1ccc(Cl)cc1` (stereo not given) [Phaclofen]: the total cell number turned out to be 0.0843.
In turn, `N#C[C@H](O[C@@H]1O[C@H](C(=O)O)[C@@H](O)[C@H](O)[C@H]1O)c1ccccc1` [Laetrile] registered a total cell number of 2.01.
`CNCC(O)c1ccc(O)cc1` (stereo not given) [Synephrine] displayed a total cell number of -0.603.
The value for `CNCC(O)c1ccc(O)cc1` (stereo not given) [Synephrine HCl] was -1.22; that for `C#CCOC(=O)C1=CCCN(C)C1` [Arecaidine propargyl ester hydrobromide] was 0.578; that for `CCC1=C[C@H]2CN3CCc4c([nH]c5ccccc45)[C@](C(=O)OC)(C2)[C@H]13` [Catharanthine] was -4.3.
`COc1cc(C(O)CN)ccc1O` (racemic) [(±)-Normetanephrine hydrochloride] came in with a total cell number of -1.67.
The value for `CC(C)C[C@H]1C(=O)N2CCC[C@H]2[C@]2(O)O[C@](NC(=O)[C@@H]3C=C4c5cccc6[nH]c(Br)c(c56)C[C@H]4N(C)C3)(C(C)C)C(=O)N12` [(+)-Bromocriptine methanesulfonate] was -4.38.
The value for `CN1[C@@H]2CC[C@H]1C[C@@H](OC(=O)C(CO)c1ccccc1)C2` (stereo not given in full) [Atropine sulfate] was 0.385; that for `CN1[C@@H]2CC[C@H]1C[C@@H](OC(=O)C(CO)c1ccccc1)C2` (stereo not given in full) [Atropine] was -3.8.
The value for `CCOc1ccccc1-n1c(C(C)N2CCN(C(=O)COc3ccc(Cl)cc3)CC2)nc2ccccc2c1=O` (stereo not given) [Erastin] was -3.85.
Compound `CC(N)c1cccc(Cl)c1Cl` (racemic) [(±)-2,3-Dichloro-alpha-methylbenzylamine hydrochloride] returned a total cell number of -2.36.
`Cc1sc2c(c1C)C(c1ccc(Cl)cc1)=N[C@@H](CC(=O)Nc1ccc(O)cc1)c1nnc(C)n1-2` returned a total cell number of -9.64.
The value for `CCc1c(C(=O)C(N)=O)c2c(OCC(=O)O)cccc2n1Cc1ccccc1` was -0.34.
In turn, `COc1ccc(C(CN(C)C)C2(O)CCCCC2)cc1` (stereo not given) [Venlafaxine hydrochloride] had a total cell number of -1.77.
In turn, `COc1ccc(C(CN(C)C)C2(O)CCCCC2)cc1` (stereo not given) [Venlafaxine] had a total cell number of 0.0371.
Compound `CNC(=O)Oc1ccc2c(c1)[C@]1(C)CCN(C)[C@@H]1N2C` [(-)-Physostigmine] showed a total cell number of -1.81.
Consider `CN(C)C(=O)Oc1cccc([N+](C)(C)C)c1` [Neostigmine bromide], for which the total cell number was -1.3.
The value for `CN1CCN(c2nc3ccccc3nc2Cl)CC1` was -1.44; that for `CN(C)C(=O)Oc1ccc[n+](C)c1` [Pyridostigmine bromide] was -0.334.
The value for `CN(C)C(=O)Oc1ccc[n+](C)c1` [Pyridostigmine Bromide] was -0.116; that for `CCN1CC2(OC(=O)c3ccccc3NC(C)=O)CCC(OC)C34C1C(CC23)C1(O)CC(OC)C2CC4C1(O)C2OC` (stereo not given) [Lappaconite HBr] was -1.25.
